Measured values taken from the supplement of paper PMC12217912.
The other results are listed elsewhere or left out. Sequences were assembled here from the parent chain. Inactive controls read about 0.05.

B1: TEV protease; numbered along this chain (parent)
chain: MGESLFKGPRDYNPISSSICHLTNESDGHTTSLYGIGFGPFIITNKHLFRRNNGTLVVQSLHGVFKVKDTTTLQQHLVDGRDMIIIRMPKDFPPFPQKLKFREPQREERICLVTTNFQTKSMSSMVSDTSCTFPSGDGIFWKHWIQTKDGQCGSPLVSTRDGFIVGIHSASNFTNTNNYFTSVPKNFMELLTNQEAQQWVSGWRLNADSVLWGGHKVFMVKPEEPFQPVKEATQL

Variants of: B1
Assay: raw area under fraction-flipped curve 0-4 h after induction (AUC4h, not background-subtracted), DNA-recorder readout of cleavage of the substrate (dimensionless); higher = more cleavage of the substrate by the protease variant
Settings: temperature: 34 °C; time window: 0-4 h after rhamnose induction
Method: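 In vivo DNA recorder in E. coli TOP10(DE3) ΔrhaA at 34 °C. Each TEVp single-site mutant (parent TEVp 0) is paired with a single-site variant of the 7-mer TEVs (canonical ENLYFQ|S). The substrate sits between flexible linkers in a Bxb1-sfGFP-TEVs-SsrA fusion, so cleavage stabilises Bxb1 and speeds flipping of a recombination array, read by NGS. The value is the raw area under the fraction-flipped curve over 0-4 h after rhamnose induction (AUC4h), with ≥20 reads per time point. It is not background-subtracted; inactive controls average about 0.047.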
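Further: Bxb1 expression induced with 0.2% (w/v) L-rhamnose at OD600 near 0.5, cultures sampled hourly, flipped fraction per protease–substrate barcode pair counted by paired-end Illumina sequencing.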

Variant	area with substrate CNLYFQS	area with substrate FNLYFQS	area with substrate GNLYFQS	area with substrate HNLYFQS	area with substrate INLYFQS	area with substrate MNLYFQS	area with substrate NNLYFQS	area with substrate RNLYFQS	area with substrate TNLYFQS	area with substrate VNLYFQS	area with substrate WNLYFQS	area with substrate YNLYFQS	area with substrate KNLYFQS	area with substrate PNLYFQS	area with substrate LNLYFQS	area with substrate QNLYFQS	area with substrate SNLYFQS	area with substrate DNLYFQS
H215G	0.0567	0.0589	0.0912	0.0592	0.0595	0.0625	0.0619	0.0712	0.0552	0.0674	0.0624	0.0275	–	–	–	–	–	–
A196N	0.0919	0.0617	0.0721	0.0757	0.0598	–	–	0.0665	0.0694	0.101	0.0474	0.0613	0.056	0.076	–	–	–	–
S201P	0.063	–	–	0.0486	0.0642	0.0638	–	–	0.0669	–	0.0514	–	–	0.0654	0.0621	0.0503	–	–
I167F	0.0584	0.0588	0.0591	0.0579	0.0597	0.0619	0.0541	0.0701	0.0623	–	0.0503	0.0442	–	0.0591	0.0647	–	0.0652	–
K185P	0.0789	0.0691	–	–	–	0.0723	–	–	–	–	0.0515	0.0623	–	0.0683	0.0675	–	0.0698	–
G202S	0.0444	0.052	0.038	0.0599	0.0475	–	–	–	–	0.0677	–	0.0761	0.0499	0.0652	0.049	0.0563	0.0733	–
G202V	0.0486	–	–	0.0459	–	–	0.0501	–	–	–	0.0618	–	0.0429	0.0568	0.0672	–	0.0724	–
G202N	0.0531	0.061	–	0.0546	0.0689	0.038	0.0761	–	0.0528	–	0.0585	0.0803	–	0.0614	–	–	0.0603	–
L205N	0.0563	–	–	–	–	0.066	–	–	–	–	0.0626	0.0729	–	–	0.0668	–	–	–
L205F	0.0818	0.057	–	0.0616	–	0.0701	–	–	0.0637	–	–	0.0499	–	–	–	–	–	–
Q198Y	0.0693	–	–	0.0629	0.0697	0.0576	–	–	0.0653	0.0677	0.0541	0.0569	–	0.061	0.0645	–	0.0643	–
Q198V	0.0582	–	–	–	–	0.0736	0.0763	0.0718	0.0557	–	0.0579	0.0635	0.076	0.0788	0.0557	–	0.054	–
G213A	0.0663	0.0627	0.0709	0.0676	0.0571	0.0533	0.052	–	0.065	–	0.0545	0.0656	–	0.0536	0.058	–	0.0595	–
G213K	0.0199	0.065	–	0.0661	0.0496	0.0541	0.0097	–	0.0517	0.0727	0.0508	0.0689	0.044	0.0605	0.0654	–	–	–
G213Y	0.0385	–	–	0.0622	–	0.0851	0.0604	0.0438	0.0602	–	0.0613	0.0628	0.0604	0.0674	0.0535	–	0.0347	–
G213S	0.0524	0.0685	–	0.057	0.0644	–	–	–	0.0582	0.0356	0.056	–	0.0489	0.084	0.0788	–	0.054	–

Variant	area with substrate CNLYFQS	area with substrate FNLYFQS	area with substrate GNLYFQS	area with substrate HNLYFQS	area with substrate INLYFQS	area with substrate MNLYFQS	area with substrate NNLYFQS	area with substrate RNLYFQS	area with substrate TNLYFQS	area with substrate VNLYFQS	area with substrate WNLYFQS	area with substrate YNLYFQS	area with substrate KNLYFQS	area with substrate PNLYFQS	area with substrate LNLYFQS	area with substrate QNLYFQS	area with substrate SNLYFQS	area with substrate DNLYFQS
I164E	0.0355	0.0591	–	0.0476	0.0484	0.0413	–	0.0669	0.0372	–	0.0481	0.0638	0.0371	0.0525	0.0599	–	0.0557	–
I164H	0.0531	–	0.0467	–	–	0.0591	–	–	–	0.0413	–	–	0.0523	0.076	–	–	0.0496	–
I164L	0.052	0.0577	0.0548	0.0647	0.065	–	0.0686	–	0.0576	–	0.0548	0.0437	0.0754	0.0685	0.0608	–	–	–
G214K	0.0547	–	0.0499	–	–	–	0.0067	0.0687	–	0.0617	0.0413	0.0758	–	0.0629	–	0.0568	0.0854	–
G214M	0.0489	0.0639	–	0.0487	0.0605	0.0712	0.0648	–	0.082	–	0.0531	0.0601	0.0539	0.0773	–	–	0.0642	–
G214V	0.0666	–	–	0.0746	–	0.0494	0.0472	–	0.0595	–	0.0534	–	–	–	–	–	–	–
W203R	0.0523	0.0554	–	0.0686	0.0533	0.0602	0.0499	–	0.0601	–	0.0527	–	0.0631	0.065	0.0503	–	0.0545	–
V183I	0.0616	–	0.059	–	0.0612	–	–	–	–	0.0657	0.0635	0.0636	–	0.0749	–	–	0.0761	–
V183C	0.0649	0.0697	0.12	0.0829	0.0656	0.0627	–	–	–	–	0.0141	0.0566	0.0554	0.048	0.0651	–	0.0672	–
Q197C	0.0709	0.0525	–	–	0.0357	0.0686	–	0.0681	0.0692	–	0.0667	–	–	–	0.0697	–	0.0603	–
L191T	0.0516	0.0457	–	0.0598	0.048	0.0666	0.0409	0.0081	0.0559	–	0.0435	0.0535	0.0754	0.0631	0.0532	–	0.0523	0.0287
L191I	0.0738	–	–	0.0574	0.0336	0.0656	–	–	–	–	0.0656	–	–	0.0627	–	–	–	–
G162H	0.0643	0.0569	0.0577	0.073	–	–	0.0599	–	0.0595	0.0696	0.0667	0.0665	0.0785	0.0708	0.0588	0.0585	0.0634	–
Q194S	0.0898	0.0633	–	0.0644	0.062	–	0.0793	0.0671	0.0722	–	0.0549	0.0618	0.075	0.0846	0.0607	0.0758	0.0661	–
T159Y	0.0558	0.0601	–	0.0607	0.0385	–	–	–	0.0402	–	–	0.0554	0.0617	–	0.063	0.0657	0.0643	–
S182W	0.0536	–	0.0676	0.0523	–	0.0524	–	–	–	0.0474	0.0503	0.056	–	0.0774	0.0687	–	–	0.0578
